In PubChem BioAssay AID651820 (National Center for Advancing Translational Sciences (NCATS), 2012):
Hit rate of the full screen: of about 340,000 compounds, about 12,000 (3.5%) were called active. Inconclusive results, whose numbers are uncertain, are shown with a selection of clear calls. Calls come from the whole dose curve; as a rule, active = well fitted inhibition curve with a large enough effect; inconclusive = small, poorly fitted or top-dose-only effect, or another doubt; inactive = no such curve, though single readings can be large or run the other way. Potencies of inconclusive entries are left out as doubtful fits. More than one record can exist for a structure, and the calls need not agree.

Assay: qHTS Assay for Inhibitors of Hepatitis C Virus (HCV)
Settings: Huh7.5.1 HCVcc-Cre (HCVcc is cell-culture hepatitis C virus) infection, luciferase reporter, 44 h; series mostly up to 41.8 µM
How it was run: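 After 44 h co-culture of compound, cells and HCVcc-Cre (~0.5 moi), substrate is added for 15 min at room temperature and luciferase measured over 15 sec. Cells were seeded at 1,000/well and pre-cultured 4 h.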
Potency is the fitted concentration of half-maximal effect; tags give direction and shape of the fitted curve.

| SMILES | Potency |
| --- | --- |
| CCOc1ccc(OCc2ccc(C(=O)OCc3ccccn3)o2)cc1 | inactive |
| COc1ccc(C(=O)NC(C)c2cccnc2)cc1S(=O)(=O)N(C)Cc1ccccc1 (stereo not given) | inconclusive [inhibitor, single point] |
| COc1ccc(C(C(=O)NCC2CCCO2)N(Cc2cccs2)C(=O)c2snc(C(N)=O)c2N)cc1 (stereo not given) | inconclusive [inhibitor, partial curve] |
| Oc1ccc(CN2CCCCC2)c2cccnc12 | active: 6.31 µM |
| CCN(CC)c1ccc(NC(=O)c2cc(Cl)ccc2OC)cc1 | inconclusive [inhibitor, single point] |
| COc1ccccc1NC(=O)CSc1nnc(-c2ccco2)n1Cc1ccco1 | inconclusive [inhibitor, partial curve] |
| CC(C)CNC(=O)c1cccc(NC(=O)c2ccc(NC(=O)c3ccco3)cc2)c1 | inconclusive [inhibitor, partial curve] |
| CC1(C)CC(=O)c2sc(NC(=O)Cc3cccs3)nc2C1 | inconclusive [inhibitor, partial curve] |
| COc1ccccc1CNc1cc(CSc2ccc(Cl)cc2)nc(C)n1 | inconclusive [inhibitor, single point] |
| N#CC(=C1CCCC1)c1nc(-c2ccccc2)cs1 | inconclusive [inhibitor, single point] |
| CCN(CC)S(=O)(=O)c1ccc(C(=O)NCC(c2cccs2)N2CCOCC2)cc1 (stereo not given) | inactive |
| O=C(c1cc2cc(Cl)ccc2[nH]1)N1CCc2ccccc2C1 | inconclusive [inhibitor, single point] |
| Cc1ccc(NC(=O)CN2CCC(NC(=O)C3CCCCC3)CC2)c(Br)c1 | inactive |
| CCN(CC)S(=O)(=O)c1ccc(N2CCc3cc(OC)c(OC)cc3C2)nc1 | inconclusive [inhibitor, partial curve, poor fit] |
| Cc1nc(Nc2ccc(S(=O)(=O)N3CCCCC3C)cc2)c2nnn(Cc3ccccc3)c2n1 (stereo not given) | inconclusive [inhibitor, full curve] |
| Cc1cc(O)ccc1N/C=C(\C#N)c1nc2ccccc2o1 | inconclusive [inhibitor, full curve] |
| CCN(Cc1ccccc1)C(c1cccs1)c1nnnn1C1CCCCC1 (stereo not given) | inconclusive [inhibitor, single point] |
| CCOC(=O)C1=C(C)N(CC(C)C)C(=O)/C1=C\c1ccc(OCC(=O)Nc2ccccc2)cc1 | inactive |
| COc1ccc([N+](=O)[O-])cc1NC(=O)c1cc(C)c(C)o1 | inactive |
| Cc1c(-c2nc(N)nc(Nc3ccccc3F)n2)oc2ccccc12 | inconclusive [inhibitor, partial curve] |
| COc1cccc(-c2ccc(SCC(=O)NC3CCCCC3)nn2)c1 | inactive |
| CCc1ccc(N(C(=O)c2snc(C(N)=O)c2N)C(C(=O)NCCC(C)C)c2c[nH]c3ccccc23)cc1 (stereo not given) | inactive |
| COc1ccc(NC(=O)c2ccc(Cl)c(S(=O)(=O)N3CC(C)OC(C)C3)c2)cn1 (stereo not given) | active: 3.16 µM |

| SMILES | Potency |
| --- | --- |
| Cc1ccc2c(c1)nnn2C1CCN(CC(=O)N2c3ccccc3CC2C)CC1 (stereo not given) | inactive |
| O=C(CN1CCCc2ccccc21)NC(=O)NCc1ccco1 | inactive |
| OCCOCCN1CCN(C(c2ccccc2)c2ccc(Cl)cc2)CC1 (stereo not given) | active: 1.41 µM |
| CCOC(=O)c1ccc2c(c1)nc(C1CCN(S(=O)(=O)c3cccs3)CC1)n2CC | active: 6.31 µM |
| Cc1ccc(OCC(=O)N(C)CC(=O)Nc2ccc(Cl)c(C(F)(F)F)c2)c([N+](=O)[O-])n1 | inconclusive [inhibitor, full curve] |
| Cc1ccc(S(=O)(=O)N2CCCCC2)cc1NC(=O)c1c(-c2ccccc2)noc1C | inactive |
| CCN(CC)C(=O)Cn1cc(/C=C(\C#N)C(=O)N2CCN(c3ccccc3)CC2)c2ccccc21 | inconclusive [inhibitor, partial curve] |
| O=C(CNc1cccc(C(F)(F)F)c1)N/N=C/c1cccc(Br)c1 | inconclusive [inhibitor, partial curve] |
| COCCCNC(=S)NNC(=O)c1ccc(S(=O)(=O)N2CCC(C)CC2)cc1 | inactive |
| CC(C)Cn1c2c(c(=O)[nH]c1=O)C(C(F)(F)F)(C(F)(F)F)N=C(CCC1CCCCC1)N2 | inconclusive [inhibitor, full curve, poor fit] |
| O=C(Cc1ccccc1)N1CCN(c2ccc([N+](=O)[O-])cc2)CC1 | inactive |
| COc1ccc(CNC(=O)C[C@H]2C[C@H](C(=O)N3CCCCC3)[C@@]3(C)c4[nH]c5cc(CCC(=O)N(C)C)ccc5c4CCN3C2=O)cc1OC | inactive |
| Cc1ccccc1NC(=O)NNC(=O)c1ccc2ccccc2c1 | inactive |
| CC(C)c1ccc(NC2(C#N)C(=O)Nc3ccccc32)cc1 (stereo not given) | inactive |
| COC(=O)c1cc(=O)n(Cc2ccco2)c(=Nc2ccc(F)cc2)s1 | inconclusive [inhibitor, single point] |
| CC(C)C(NC(=O)Nc1ccccc1)C(=O)Nc1cccc(S(=O)(=O)N(C)C)c1 (stereo not given) | inconclusive [inhibitor, full curve, poor fit] |
| CCn1c(=O)c(C(=O)NCc2cccnc2)c(O)c2ccccc21 | inconclusive [inhibitor, single point] |
| COc1ccccc1OCc1nc(-c2cccc([N+](=O)[O-])c2)no1 | inconclusive [inhibitor, full curve, poor fit] |
| COc1ccc(S(=O)(=O)N2CCC(C(=O)Nc3ccc4c(c3)OCCO4)CC2)cc1OC | inconclusive [inhibitor, single point] |
| C=CCOc1ccc(CNc2ccc(NC(=O)CC(C)C)cc2)cc1OC | inconclusive [inhibitor, single point] |
| COc1ccc(C(=O)c2cn[nH]c2-c2ccc(C)cc2O)cc1 | inactive |
| C=CC1=C(C(=O)O)N2C(=O)[C@@H](NC(=O)/C(=N\OCC(=O)O)c3csc(N)n3)[C@H]2SC1 | inconclusive [inhibitor, partial curve, poor fit] |
